According to the supplement of paper PMC12217912:
The list shows a part of the results. The full chains were built here from the parent and the listed change. Values near 0.05 are background.

B1: TEV protease; numbered along this chain (parent)
chain: MGESLFKGPRDYNPISSSICHLTNESDGHTTSLYGIGFGPFIITNKHLFRRNNGTLVVQSLHGVFKVKDTTTLQQHLVDGRDMIIIRMPKDFPPFPQKLKFREPQREERICLVTTNFQTKSMSSMVSDTSCTFPSGDGIFWKHWIQTKDGQCGSPLVSTRDGFIVGIHSASNFTNTNNYFTSVPKNFMELLTNQEAQQWVSGWRLNADSVLWGGHKVFMVKPEEPFQPVKEATQL

Variants of: B1
Experiment: raw area under fraction-flipped curve 0-4 h after induction (AUC4h, not background-subtracted), DNA-recorder readout of cleavage of the substrate (dimensionless); higher = more cleavage of the substrate by the protease variant
Settings: temperature: 34 °C; time window: 0-4 h after rhamnose induction
Procedure: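 In vivo DNA recorder in E. coli TOP10(DE3) ΔrhaA at 34 °C. Each TEVp single-site mutant (parent TEVp 0) is paired with a single-site variant of the 7-mer TEVs (canonical ENLYFQ|S). The substrate sits between flexible linkers in a Bxb1-sfGFP-TEVs-SsrA fusion, so cleavage stabilises Bxb1 and speeds flipping of a recombination array, read by NGS. The value is the raw area under the fraction-flipped curve over 0-4 h after rhamnose induction (AUC4h), with ≥20 reads per time point. It is not background-subtracted; inactive controls average about 0.047.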
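Further: Bxb1 expression induced with 0.2% (w/v) L-rhamnose at OD600 near 0.5, cultures sampled hourly, flipped fraction per protease–substrate barcode pair counted by paired-end Illumina sequencing.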

| Variant | area with substrate ENLYAQS | area with substrate ENLYDQS | area with substrate ENLYEQS | area with substrate ENLYGQS | area with substrate ENLYHQS | area with substrate ENLYIQS | area with substrate ENLYKQS | area with substrate ENLYMQS | area with substrate ENLYNQS | area with substrate ENLYPQS | area with substrate ENLYSQS | area with substrate ENLYTQS | area with substrate ENLYVQS | area with substrate ENLYCQS | area with substrate ENLYLQS | area with substrate ENLYRQS | area with substrate ENLYWQS | area with substrate ENLYQQS | area with substrate ENLYYQS |
| --- | --- | --- | --- | --- | --- | --- | --- | --- | --- | --- | --- | --- | --- | --- | --- | --- | --- | --- | --- |
| T70E | 0.061 | 0.0553 | 0.0521 | 0.0553 | 0.066 | 0.0855 | 0.0545 | 0.06 | 0.0568 | 0.0531 | 0.0591 | 0.0554 | 0.0972 | – | – | – | – | – | – |
| L22E | 0.0391 | 0.044 | 0.0421 | 0.0481 | 0.0613 | 0.0416 | 0.0245 | 0.0482 | 0.0492 | – | 0.0639 | 0.044 | 0.0451 | 0.0476 | 0.0428 | 0.0628 | 0.0447 | – | – |
| Q75F | 0.0769 | 0.0608 | 0.0621 | 0.0424 | – | 0.148 | 0.082 | 0.0659 | 0.0675 | 0.0576 | – | 0.0725 | 0.0709 | – | 0.0653 | 0.0606 | 0.0713 | 0.0613 | 0.0764 |
| I110T | 0.0562 | 0.0547 | 0.0566 | 0.0688 | 0.0601 | 0.0945 | 0.0662 | 0.0907 | 0.0685 | 0.066 | 0.0567 | – | 0.106 | – | – | 0.0635 | 0.0707 | 0.0669 | – |
| H29C | 0.0892 | 0.0648 | 0.0662 | 0.0719 | 0.0694 | 0.122 | 0.0713 | 0.0866 | – | 0.0768 | 0.0797 | – | 0.0642 | – | 0.149 | 0.0591 | 0.0649 | 0.0685 | 0.134 |
| L33I | 0.0794 | 0.0608 | 0.0587 | 0.0584 | 0.0542 | 0.0591 | 0.0561 | 0.0591 | 0.0647 | 0.0682 | 0.0786 | 0.0631 | 0.0974 | – | – | 0.0733 | – | – | – |
| L33M | 0.0716 | 0.0605 | 0.0682 | 0.0519 | 0.0661 | 0.105 | 0.0397 | 0.0637 | 0.0571 | 0.0676 | 0.0689 | 0.0475 | 0.0675 | – | 0.0942 | 0.0565 | 0.0664 | 0.0562 | 0.0672 |
| P134D | 0.0698 | 0.0646 | 0.0644 | 0.0653 | 0.0652 | 0.0934 | 0.0619 | 0.0654 | 0.0608 | – | 0.0804 | 0.0848 | 0.0903 | 0.0786 | 0.059 | 0.0578 | 0.0635 | 0.0633 | 0.0513 |
| I43A | 0.0732 | 0.0423 | 0.06 | – | 0.0637 | 0.0763 | 0.0732 | 0.0744 | 0.058 | 0.0647 | 0.0576 | – | 0.0993 | – | 0.0774 | 0.0556 | 0.0601 | 0.0571 | 0.0495 |
| D27C | 0.0566 | 0.0617 | 0.0576 | 0.0532 | 0.0643 | 0.0721 | 0.0446 | 0.0831 | 0.0558 | 0.0572 | 0.069 | – | 0.111 | 0.13 | 0.0845 | 0.0564 | 0.066 | 0.0555 | – |
| N13I | 0.0804 | 0.04 | 0.0734 | 0.0857 | 0.0622 | 0.101 | 0.0533 | – | 0.0605 | 0.077 | 0.0666 | – | 0.0889 | 0.0693 | – | – | 0.0754 | 0.0776 | 0.0647 |
